# The whole screen tested about 310,000 compounds, of which about 14,000 (4.5%) showed an effect of 50% or more. The effect is printed as a negative number. Some of the results follow.
# Biological target: human ether-à-go-go-related gene (hERG) potassium channel (human, UniProt Q12809)
# Test: primary screen, population patch clamp on CHO cells stably expressing hERG
# 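Note: peak tail current of the secondary pulse compared with the same well before compound.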
# Chain of human ether-à-go-go-related gene (hERG) potassium channel (Q12809 whole entry, looked up): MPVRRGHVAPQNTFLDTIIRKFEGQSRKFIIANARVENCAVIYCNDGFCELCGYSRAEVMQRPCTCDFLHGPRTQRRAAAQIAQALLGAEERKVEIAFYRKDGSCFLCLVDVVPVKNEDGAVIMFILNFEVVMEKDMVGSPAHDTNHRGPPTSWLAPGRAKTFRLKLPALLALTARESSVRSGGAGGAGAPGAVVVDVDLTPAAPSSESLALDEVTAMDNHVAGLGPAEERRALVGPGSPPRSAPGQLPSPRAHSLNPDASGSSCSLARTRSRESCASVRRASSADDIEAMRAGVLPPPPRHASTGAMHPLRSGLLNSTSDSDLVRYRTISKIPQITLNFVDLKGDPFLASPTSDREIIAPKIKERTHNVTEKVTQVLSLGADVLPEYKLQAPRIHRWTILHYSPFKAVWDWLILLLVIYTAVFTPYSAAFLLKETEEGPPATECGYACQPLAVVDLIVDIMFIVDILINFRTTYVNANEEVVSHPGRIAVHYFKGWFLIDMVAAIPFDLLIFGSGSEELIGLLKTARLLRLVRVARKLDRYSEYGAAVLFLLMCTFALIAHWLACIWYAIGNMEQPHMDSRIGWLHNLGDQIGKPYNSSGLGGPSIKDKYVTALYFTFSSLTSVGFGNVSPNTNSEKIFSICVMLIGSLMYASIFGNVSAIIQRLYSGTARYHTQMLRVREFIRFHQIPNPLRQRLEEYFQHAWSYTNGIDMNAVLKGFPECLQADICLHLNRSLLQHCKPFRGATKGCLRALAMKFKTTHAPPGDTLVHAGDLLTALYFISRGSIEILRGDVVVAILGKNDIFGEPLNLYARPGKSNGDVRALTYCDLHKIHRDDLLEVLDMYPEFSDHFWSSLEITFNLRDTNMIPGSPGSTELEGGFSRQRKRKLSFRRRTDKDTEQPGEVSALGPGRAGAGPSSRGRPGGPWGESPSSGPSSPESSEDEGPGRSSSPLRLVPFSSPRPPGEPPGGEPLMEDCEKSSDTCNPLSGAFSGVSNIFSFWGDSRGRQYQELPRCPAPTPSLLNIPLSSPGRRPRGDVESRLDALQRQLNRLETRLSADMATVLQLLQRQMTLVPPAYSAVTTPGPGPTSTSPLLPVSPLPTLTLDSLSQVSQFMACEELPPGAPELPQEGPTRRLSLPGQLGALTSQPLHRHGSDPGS
row,SMILES,"hERG current change (%, negative = inhibition) at 10uM [%]"
1,Cc1cc(F)ccc1S(=O)(=O)N1CCCOC1CNC(=O)C(=O)NC1CC1 (centres unmarked),-32.7
2,CCCC(=O)OCC(=O)Nc1ccc([N+](=O)[O-])cc1C#N,3.29
3,COc1cc(NC(=O)CCCn2c(=S)[nH]c3ccccc3c2=O)cc(OC)c1OC,8.48
4,CCOC(=O)C1CCN(C(=O)Cn2cc(C#N)c3ccccc32)CC1,-13.6
5,CCCS(=O)(=O)c1c(S(=O)(=O)CCC)c2ccc(C(C)=O)cn2c1C(=O)OC,-12
6,CCCC(=O)NC(C)c1nc2ccccc2[nH]1 (centres unmarked),10.5
7,O=[N+]([O-])c1ccc(OCCOc2ccccc2/C=N/n2cnnc2)cc1,-38.1
8,Cc1noc(C)c1C(=O)N1CCOCC1,26.2
9,CCOC(=O)C(=O)N1CCC(C(=O)OC)CC1,27.4
10,O=C1N/C(=C/c2cccn2-c2ccccc2)C(=O)N1Cc1ccc(F)cc1,-9.44
11,CCN(CC)c1ccc(/C=N/OC(C)C(=O)Nc2ccc(C)cc2)cc1 (centres unmarked),-6.31
12,CCC(=O)Nc1cc2c3c(c1)CCN3C(=O)CC2,1.41
13,O=Cc1ccc(-c2nc3ccccc3s2)o1,-12.6
14,CCS(=O)(=O)c1nc(S(=O)(=O)c2ccc(Cl)cc2)c(N2CCN(C)CC2)s1,-19
15,COc1ccc(OC(C)C(=O)Nc2ccc(F)cc2F)cc1 (centres unmarked),5.81
16,O=C(NCCc1ccc(Cl)cc1)c1ccc2c(c1)OCCO2,25.9
17,CCOc1ncccc1C(=O)Nc1ccc(S(=O)(=O)Nc2nc(C)cc(C)n2)cc1,2.16
18,CCN1CCCC1CN(Cc1cc2cc(C)cc(C)c2[nH]c1=O)C(=O)Nc1ccccc1OC (centres unmarked),-61.4
19,O/N=C/c1ccc2ccccc2n1,14
20,CC1(C)Cc2c(cnn2-c2cccc(F)c2)C(NC(=O)Cn2cccn2)C1 (centres unmarked),-11.5
21,CCOC(=O)CSC1=NC(=O)/C(=C/c2ccc(Br)cc2)S1,18.3
22,COc1ccc(NC(=S)NC(=O)c2csnn2)cc1,-0.62

row,SMILES,"hERG current change (%, negative = inhibition) at 10uM [%]"
1,CCn1cc(C(=O)NCCCN2CCC(C)CC2)c2cc(OC)c(OC)cc2c1=O,-1.66
2,O=C(CCN1C(=O)CSC1=O)Nc1ccccc1,19.9
3,Cc1oc(C(=O)O)cc1COc1ccc2c3c(c(=O)oc2c1)CCC3,3.86
4,C/C(=N\O)C1CCCCC1,11.7
5,CCOC(=O)C(C)(C)N(Cc1ccc(C)cc1)S(=O)(=O)c1ccc(Cl)c([N+](=O)[O-])c1,15.2
6,CCN(CC(=O)Nc1ccc(OC)cc1)C(=O)Cc1ccc(OC)c(S(=O)(=O)N2CCOCC2)c1,2.14
7,CCN(CC)S(=O)(=O)c1ccc(S(=O)(=O)Nc2c(C)nn(C)c2C)cc1,16.9
8,CCOC(=O)CSc1nnc(CNC(=O)c2ccc(OC)cc2)n1Cc1ccccc1,-7.4
9,Cc1cc(O)c(C2(C(F)(F)F)NCCNC2=O)cc1C (centres unmarked),12.7
10,CCOc1ccc2oc(C(=O)OCC(=O)N3C(C)CCCC3C)c(C)c2c1 (centres unmarked),-9.63
11,CC(=O)N1CCc2cc(S(=O)(=O)CCC(=O)N3CCN(c4ccccn4)CC3)ccc21,-11
12,CCCCc1nccn1CCn1ccnc1CCCC.Cl,-5.64
13,CCOC(=O)C1(Cc2ccc(Cl)cc2)CCN(C(=O)CCc2cnccn2)CC1,-50
14,COC(=O)CN1C(=O)[C@H]2[C@@H](c3ccc(C)o3)N3C(=O)CN(CC4CC4)C(=O)[C@@]3(C)[C@H]2C1=O,-0.425
15,COc1ccccc1C1CCN(c2ccc(CO)cc2[N+](=O)[O-])CC1,4.52
16,CC(=O)c1sc(C(C)(C)C)cc1NC(=O)/C=C/C(=O)O,13.6
17,O=C(O)CC1Oc2ccc(Cl)cc2NC1=O (centres unmarked),8.61
18,CC(=O)NC(Cc1cnc[nH]1)C(=O)O (centres unmarked),3.31
19,CCN1CCN(c2nc(Nc3cc(OC)ccc3OC)nc(Nc3cc(OC)ccc3OC)n2)CC1,10.6
20,CCOc1ccccc1N(CC(=O)Nc1cc(OC)ccc1OC)S(C)(=O)=O,-10.8
21,COCCNC(=O)c1cc(-c2ccc3c(c2)OCO3)on1,8.54
22,CC(=O)c1ccc(N2CCN(C(=O)Nc3ccc(C)cc3)CC2)cc1,-4.03
